Mean IC50, cell kill assay (WST-1, 96 h, with human serum) on KASUMI-3 cells (CD33+/CD56+), Mean IC50, cell kill assay (WST-1, 96 h, with human serum) on SET-2 cells (CD33+/CD56-) and Mean IC50, cell kill assay (WST-1, 96 h, with human serum) on KE-37 cells (CD33-/CD56+) data for one molecule are collected here from patent US20250161477A1, “NOVEL METHODS OF THERAPY” (BIVICTRIX LIMITED, priority 2022, published 2025).

One assay has as its target human CD33 (human) (UniProt P20138). The experiment in a line: cell-based or functional assay.
Chain of UniProt P20138 (P20138 18-364 R69G limits assumed): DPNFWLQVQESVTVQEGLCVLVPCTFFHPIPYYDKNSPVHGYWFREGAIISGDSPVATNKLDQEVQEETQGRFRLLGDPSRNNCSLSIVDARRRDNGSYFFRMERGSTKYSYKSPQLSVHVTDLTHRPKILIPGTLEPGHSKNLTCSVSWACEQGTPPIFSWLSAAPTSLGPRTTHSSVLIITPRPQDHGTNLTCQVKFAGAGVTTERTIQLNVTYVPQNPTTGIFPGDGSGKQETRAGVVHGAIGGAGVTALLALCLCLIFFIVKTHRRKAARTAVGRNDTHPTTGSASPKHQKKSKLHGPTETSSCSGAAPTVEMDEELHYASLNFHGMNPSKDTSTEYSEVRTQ
The target of the next assay is human CD56 (human) (UniProt P13591). The experiment in a line: cell-based or functional assay.
Chain of UniProt P13591 (P13591 other isoform, or with tags, fused parts or gaps limits assumed): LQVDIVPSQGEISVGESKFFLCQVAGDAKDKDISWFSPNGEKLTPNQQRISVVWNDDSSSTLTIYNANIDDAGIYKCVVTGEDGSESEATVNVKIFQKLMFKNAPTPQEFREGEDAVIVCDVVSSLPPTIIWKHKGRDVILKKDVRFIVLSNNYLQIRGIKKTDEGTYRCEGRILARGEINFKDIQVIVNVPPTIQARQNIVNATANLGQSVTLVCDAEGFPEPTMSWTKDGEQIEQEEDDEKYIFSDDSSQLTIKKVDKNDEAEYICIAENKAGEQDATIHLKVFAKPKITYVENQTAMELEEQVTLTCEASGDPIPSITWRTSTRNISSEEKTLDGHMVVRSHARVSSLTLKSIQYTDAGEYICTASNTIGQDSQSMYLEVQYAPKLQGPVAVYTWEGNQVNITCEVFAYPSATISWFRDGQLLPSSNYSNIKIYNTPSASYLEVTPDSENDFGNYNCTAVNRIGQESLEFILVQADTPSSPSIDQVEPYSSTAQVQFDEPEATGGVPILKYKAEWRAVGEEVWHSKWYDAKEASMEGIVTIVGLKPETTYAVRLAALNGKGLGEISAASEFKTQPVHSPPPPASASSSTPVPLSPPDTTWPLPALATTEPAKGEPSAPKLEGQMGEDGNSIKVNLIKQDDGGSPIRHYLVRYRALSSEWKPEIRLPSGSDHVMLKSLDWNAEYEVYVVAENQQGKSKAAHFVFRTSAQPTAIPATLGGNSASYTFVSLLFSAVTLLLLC

B1: BVX04-b0097-AB6A-1 (CD33xCD56 V format ADC) (bispecific antibody, not shown: large carriers)
heavy: EVQLVQSGAEVKKPGSSVKVSCKASGYTITDSNIHWVRQAPGQSLEWIGYIYPYNGGTDYNQKFKNRATLTVDNPTNTAYMELSSLRSEDTAFYYCVNGNPWLAYWGQGTLVTV[letters of human IgG1 constant region with changes not shown]
light: DIQLTQSPSTLSASVGDRVTIICRASESLDNYGIRFLTWFQQKPGKAPKLLMYAASNQGSGVPSRFSGSGSGTEFTLTISSLQPDDFATYYCQQTKEVPWSFGQGTKLEIK
chain: DVVMTQSPLSLPVTPGEPASISCRSSQSLLHSNGYNFLDWYLQKPGQSPQLLIYLGSNRASGVPDRFSGSGSGTDFTLKISRVEADDVGVYYCMQSLQTPWTFGHGTKVEIKGGGGSGGGGSGGGGSGGGGSEVQLVQSGAEVKKPGSSVKVSCKASGGTFTGYYMHWVRQAPGQGLEWMGWINPNSGGTNYAQKFQGRVTMTRDTSISTAYMELSRLRSDDTAVYYCARDLSSGYSGYFDYWGQGTLVTVSSGGGGS[letters of human IgG1 Fc with changes not shown]
In the assay with human CD33 (human), B1 came in with a Mean IC50, cell kill assay (WST-1, 96 h, with human serum) on KASUMI-3 cells (CD33+/CD56+) of 0.15 nM and a Mean IC50, cell kill assay (WST-1, 96 h, with human serum) on SET-2 cells (CD33+/CD56-) of over 30 nM. In the assay with human CD56 (human), the Mean IC50, cell kill assay (WST-1, 96 h, with human serum) on KASUMI-3 cells (CD33+/CD56+) worked out at 0.15 nM and the Mean IC50, cell kill assay (WST-1, 96 h, with human serum) on KE-37 cells (CD33-/CD56+) was over 30 nM.
